Measurements as given in the supplement of paper PMC3334620.
Over roughly 33,000 sequences, “E-score (-0.5 to 0.5)” has its median near -0.035; the highest 2% begin near 0.34. The list shows a part of the results.

Each sequence was assayed against T1, Mot3 (UniProt P54785) (assay: PBM E-score (8-mer binding enrichment) (E-score (-0.5 to 0.5)); higher = stronger / more preferred TF binding; most listed sequences are background and not binding sites). Conditions: protein concentration: 200 nM; construct: GST-full length.
T1 sequence: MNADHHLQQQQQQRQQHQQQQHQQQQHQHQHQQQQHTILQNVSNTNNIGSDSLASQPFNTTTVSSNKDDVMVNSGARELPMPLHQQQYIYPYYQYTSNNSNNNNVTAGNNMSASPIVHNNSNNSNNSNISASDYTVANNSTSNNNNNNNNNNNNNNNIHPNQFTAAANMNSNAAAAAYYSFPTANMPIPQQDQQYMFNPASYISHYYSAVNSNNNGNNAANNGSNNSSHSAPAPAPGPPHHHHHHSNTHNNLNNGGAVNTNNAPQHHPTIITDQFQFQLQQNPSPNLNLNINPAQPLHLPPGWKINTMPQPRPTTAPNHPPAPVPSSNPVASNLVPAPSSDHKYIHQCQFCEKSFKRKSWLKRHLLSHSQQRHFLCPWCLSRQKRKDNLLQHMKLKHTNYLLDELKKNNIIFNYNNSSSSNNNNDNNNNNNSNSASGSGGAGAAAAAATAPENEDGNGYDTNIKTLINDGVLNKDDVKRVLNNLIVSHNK
Summary of the method: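 Each ungapped eight-base word and its reverse complement, pooled, received an E-score from the Universal PBM Analysis Suite. Underlying scans, normalised with masliner, recorded fluorescent anti-GST bound to GST-tagged yeast transcription factors. These were applied at about 100-200 nM to universal all-10-mer Agilent arrays double-stranded by primer extension.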

In order of rising “PBM E-score” value:
1. CCCTGGTA  -0.363
2. CCCTCTCA  -0.348
3. CGGACTTC  -0.32
4. CTACCGGA  -0.289
5. AGCCACCC  -0.28
6. AGCAGTCG  -0.277
7. CGGACCGC  -0.253
8. AGCCGTAC  -0.25
9. ACCCCCAT  -0.244
10. CGCTCGCA  -0.241
11. GCTGCGCC  -0.24
12. AGCCGACT  -0.233
13. CTGACGGC  -0.233
14. CCGAAGAG  -0.233
15. AGCCCTTC  -0.223
16. CGTGGGAG  -0.217
17. CCCGGCCA  -0.212
18. GCTCGACC  -0.199
19. CGAGCATC  -0.198
20. GGTGCTCA  -0.191
21. CCGAACCC  -0.187
22. CTAGGCGA  -0.178
23. GAAGTGTC  -0.175
24. ACCGAGAG  -0.173
25. GTTTCGCA  -0.157
26. GCCGCTTA  -0.156
27. ACGTCCAC  -0.152
28. CAGCTGCA  -0.15
29. CGATTGAA  -0.134
30. GCCACGAA  -0.133
31. GTCAGCAC  -0.131
32. AGATAGCA  -0.126
33. TCGGTTCA  -0.125
34. GGGGCAGA  -0.114
35. ATCAGAGA  -0.113
36. GAACCAAA  -0.108
37. CCGCACTA  -0.105
38. ACCGAAAT  -0.102
39. AGCTGTCG  -0.0998
40. CAAGTCTC  -0.0942
41. ACGGGAAC  -0.0929
42. GATGCTCA  -0.084
43. CCCGAGTA  -0.0838
44. AATCACTC  -0.076
45. CGCGCCGA  -0.0757
46. AGCCAGAT  -0.0744
47. CATATACC  -0.0726
48. TAGCGCGA  -0.0707
49. AGAAGCAC  -0.066
50. GGGCGTGA  -0.066
51. ACTCTGTC  -0.059
52. ACGCACCA  -0.0561
53. CGATAGTA  -0.0543
54. ACAAGTTC  -0.0534
55. TACGTCCA  -0.0528
56. GTCGACAA  -0.0509
57. AACGGACC  -0.0489
58. CCCCAAAC  -0.0441
59. ATTCTGCG  -0.0434
60. ATATGTCC  -0.0425
61. GGAACTAA  -0.0392
62. CCAATGAG  -0.038
63. AAGTCGCG  -0.0309
64. AGAACGAA  -0.0249
65. GTCGACGA  -0.0203
66. TACTATCA  -0.0138
67. AATCTGGC  -0.0136
68. ATCACAGA  -0.0135
69. ACTGAGTG  -0.0128
70. TGAAGACA  -0.00966
71. AAAACAGA  -0.00096
72. ATCTAACG  0.0107
73. ATCTGTAC  0.0132
74. ACAGTAAT  0.0145
75. TCTGGGCA  0.0207
76. AGCGTTAA  0.0224
77. ATTGTTCA  0.0311
78. CATTCTAA  0.0389
79. CATGAAAC  0.0415
80. ACTCGAAG  0.0469
81. CTTCCTAA  0.0478
82. GACTTTAC  0.0573
83. CACCTATC  0.0654
84. AACGAGCG  0.0698
85. AGGTTTCA  0.0712
86. CACCTGAA  0.0716
87. AGCATAAA  0.0776
88. TAAAATAA  0.0938
89. ATACTTTC  0.0999
90. CAACTAAG  0.101
91. AAAGGTAT  0.102
92. CTGCTTTA  0.102
93. ACTAAGCA  0.107
94. GATAAGAA  0.113
95. ACGGCGAA  0.123
96. TAATCCAA  0.128
97. CTTGATAA  0.133
98. TATACAAA  0.165
99. ACCCGCGT  0.168
100. CTGTTTGC  0.17
101. CCTGCTGC  0.172
102. ACAAACAG  0.196
103. AGGCCACG  0.217
104. GGACAGTA  0.282
105. TTACGTAA  0.298
106. AATTACGC  0.33
107. ACGTGTTA  0.351
108. CTACATGA  0.361
109. AGAAGGAA  0.382
110. AGGCAAAA  0.467
